# Results published in article PMC4336329 (PLoS ONE, 2015).
# The campaign covered roughly 310,000 compounds. About 14,000 (4.5%) showed an effect of 50% or more. Effects have a minus sign here. This is one part of the list.
# Biological target: human ether-à-go-go-related gene (hERG) potassium channel (human, UniProt Q12809)
# Experiment: primary screen, population patch clamp on CHO cells stably expressing hERG
# 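Further: peak tail current of the secondary pulse compared with the same well before compound.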
# Chain of human ether-à-go-go-related gene (hERG) potassium channel (Q12809 whole entry, looked up): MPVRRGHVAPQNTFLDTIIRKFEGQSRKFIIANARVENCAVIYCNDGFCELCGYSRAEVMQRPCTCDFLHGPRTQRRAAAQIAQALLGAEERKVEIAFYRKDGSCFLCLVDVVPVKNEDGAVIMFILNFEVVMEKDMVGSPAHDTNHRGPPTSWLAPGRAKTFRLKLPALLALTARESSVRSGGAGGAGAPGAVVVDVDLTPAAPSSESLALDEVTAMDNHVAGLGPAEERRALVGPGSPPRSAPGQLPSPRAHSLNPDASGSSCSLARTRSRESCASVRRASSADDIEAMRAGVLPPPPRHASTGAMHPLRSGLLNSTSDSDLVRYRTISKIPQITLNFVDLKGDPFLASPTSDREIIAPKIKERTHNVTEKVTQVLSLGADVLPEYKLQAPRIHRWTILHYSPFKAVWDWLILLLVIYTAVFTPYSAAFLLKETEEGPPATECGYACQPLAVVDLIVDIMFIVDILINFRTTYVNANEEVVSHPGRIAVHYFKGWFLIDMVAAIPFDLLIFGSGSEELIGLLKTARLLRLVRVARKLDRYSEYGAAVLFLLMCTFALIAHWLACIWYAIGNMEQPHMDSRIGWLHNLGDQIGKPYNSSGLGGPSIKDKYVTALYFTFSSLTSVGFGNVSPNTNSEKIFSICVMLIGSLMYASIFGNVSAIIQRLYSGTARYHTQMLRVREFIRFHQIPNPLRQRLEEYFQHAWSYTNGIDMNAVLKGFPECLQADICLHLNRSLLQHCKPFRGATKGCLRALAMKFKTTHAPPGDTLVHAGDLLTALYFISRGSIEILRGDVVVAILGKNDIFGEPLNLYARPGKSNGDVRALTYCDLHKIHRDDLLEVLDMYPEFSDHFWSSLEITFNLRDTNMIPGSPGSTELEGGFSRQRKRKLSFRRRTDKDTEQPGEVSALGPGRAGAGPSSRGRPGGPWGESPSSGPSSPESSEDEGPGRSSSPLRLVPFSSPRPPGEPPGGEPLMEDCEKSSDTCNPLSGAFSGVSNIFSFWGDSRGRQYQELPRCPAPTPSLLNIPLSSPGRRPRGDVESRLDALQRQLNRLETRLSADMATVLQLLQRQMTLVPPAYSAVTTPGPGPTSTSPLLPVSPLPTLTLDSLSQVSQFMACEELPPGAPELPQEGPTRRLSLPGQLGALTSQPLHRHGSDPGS
row,SMILES,"hERG current change (%, negative = inhibition) at 10uM [%]"
1,CCOC(=O)N1CCN(c2cc(NCCO)c([N+](=O)[O-])c3nonc23)CC1,31.2
2,O=C(NCc1nc(-c2ccccc2)no1)c1cccs1,-7.36
3,Cc1ccc(Nc2nc(N)nc(CSCCO)n2)cc1,8.72
4,Cc1ccc(C)c(N2CCN(C(=O)c3ccc(CS(=O)Cc4ccc(Cl)cc4)o3)CC2)c1 (stereo not drawn),-26.9
5,COc1ccccc1C(c1nnnn1C(C)C)N1CCN(C(=O)c2ccco2)CC1 (stereo not drawn),1.24
6,O=C(CSC(=S)N1CCN(c2ccccc2)CC1)Nc1nc(-c2ccccc2)c(-c2ccccc2)o1,-2.74
7,Cc1nc2cc(NC(=O)c3ccc([N+](=O)[O-])s3)ccc2s1,-9.99
8,Cc1ccsc1/C=N/NC(=O)c1ccccn1,3.44
9,COc1ccc(S(=O)(=O)N2c3cc(C)ccc3OCC2C(C)(C)C)cc1 (stereo not drawn),11.6
10,Cc1cccc(NC(=O)C2CCCN(C(=O)NCc3ccccc3)C2)c1C (stereo not drawn),12.6
11,O=S(=O)(c1cnccc1N1CCN(/N=C/c2ccc(Br)cc2)CC1)N1CCCCC1,13
12,O=C(CN1CCOCC1)Nc1nc(-c2ccccc2Cl)cs1,-17.6
13,CCN(CC)Cc1c(O)ccc2c(=O)c(-c3ccc(Cl)cc3)coc12,-58.4
14,CC(C)CN(CC(C)C)S(=O)(=O)N1CCC(C(=O)NCc2cccs2)CC1,3.91
15,O=C(NCCCN1CCCC1=O)c1cn(-c2ccccc2)nc1-c1ccccc1,-10.6
16,O=C(NCc1ccco1)c1ccc(Cl)c(S(=O)(=O)N2CCOCC2)c1,-7.4
17,Cc1ccc(C2CC(=O)Nc3sc(C(N)=O)c(N)c32)cc1 (stereo not drawn),0.514
18,CSc1cccc(NC(=O)N2CCN(C)CC2)c1,-31.1
19,COc1cc2cc(CCCOC(=O)c3ccco3)oc(=O)c2cc1OC,-6.2
20,Cc1occc1C(=O)NCc1cccc(CNC(=O)c2ccoc2C)c1,6.74
21,CC(=O)NCC(=O)NC1(C(=O)NC2CCCC2)CCCCC1,10.1
22,COc1cccc(C(=O)COc2ccc(NC(=O)c3cccs3)cc2)c1,17.5
23,Cc1cccc(C)c1NC(=S)N1CCC(c2ccccc2)C1 (stereo not drawn),9.47

row,SMILES,"hERG current change (%, negative = inhibition) at 10uM [%]"
1,COc1ccc(N2CCN(C(CNC(=O)c3cccc(Cl)c3)c3cccnc3)CC2)cc1 (stereo not drawn),-38.7
2,O=C(Nc1cccc(C(F)(F)F)c1)c1ccc2nc(-c3ccco3)c(-c3ccco3)nc2c1,7.95
3,N#Cc1cc(C(=O)c2cc(Br)ccc2O)cn(Cc2ccccc2)c1=O,24.9
4,O=C(c1ccc(-n2c(SCc3cccc(F)c3)nc3ccccc3c2=O)cc1)N1CCOCC1,-3.57
5,Nc1n[nH]c(C2CC2)c1N=Nc1ccc(Cl)cc1,-1.16
6,CC(C)(C)c1[nH]nc2c1C(Cc1ccccc1)C(C#N)=C(N)O2 (stereo not drawn),-4.31
7,COc1ccc(CNC(=O)C/C(C)=N/NC(=O)Cc2ccc(OC)c(OC)c2)cc1,2.57
8,CC(C)[C@H](NC(=O)c1ccc(Cl)c([N+](=O)[O-])c1)C(=O)NCc1ccc(Cl)cc1Cl,5.09
9,CCOC(=O)Cc1nn2c(=O)cc(C)nc2s1,10.7
10,COc1ccc(-c2nnc(OCc3nc4ccccc4n3C)c3ccccc23)cc1,-40.2
11,CC(=O)Nc1ccc(Oc2ncccn2)c(Cl)c1,-2.38
12,COc1ccc(-n2nc(C(=O)NCC(=O)NC(C)C)c3ccccc3c2=O)c(OC)c1,11.3
13,O=C(Nc1ccc(Br)cc1)Nc1ccccc1F,7.6
14,Cc1ccc(NC(=O)[C@H](Cc2ccccc2)NC(=O)[C@@H]2Cc3ccccc3CN2)c(C)c1,-5.23
15,Cc1cc(N2CCC(C)CC2)nc2ccc(N3C(=O)CCC3=O)cc12,2.53
16,COCCN(C(=O)COC(=O)c1cc2ccccc2cc1OC)c1c(N)n(Cc2ccccc2)c(=O)[nH]c1=O,2.21
17,CC(NCc1nc2ccccc2n1C)C12CC3CC(CC(C3)C1)C2 (stereo not drawn),-16.3
18,Cc1ccc(C2CC(=O)c3cnn(-c4nc(C)cc(C)n4)c3C2)cc1 (stereo not drawn),-20.2
19,CCC(CO)n1c(SCc2cc(=O)oc3cc(C)ccc23)nc2ccccc2c1=O (stereo not drawn),2.16
20,CCCc1nc(SCC(=O)Nc2ccc(N3CCOCC3)cc2)c2ccccc2n1,-9.11
21,Cc1cc(CCC(=O)O)c(C)cc1CCC(=O)O,6.33
22,O=C(CSc1ccc2nnc(-c3ccncc3)n2n1)NCc1ccco1,-25.8
23,COc1ccc(Cl)cc1NC(=O)NCc1ccco1,-0.66

row,SMILES,"hERG current change (%, negative = inhibition) at 10uM [%]"
1,O=c1[nH]c2ccsc2c(=O)n1CCO,9.81
2,CC1CCCCN1Cc1cccnc1.O=C(O)C(=O)O (stereo not drawn),33
3,Cc1nnc(SCc2nnc(-c3cccs3)o2)n1C,1.31
4,COc1ccc(C(=O)Nc2ccc(C(F)(F)F)n(C)c2=O)cc1,-19.5
5,C#CCCCCCCC#CCN(C)C.CC(=O)O,4.19
6,Cc1c(-c2ccncc2)oc2ccc(Br)cc2c1=O,-41.2
7,COc1ccc(/C=N/NC(=O)Cc2csc(Nc3cccc(C(F)(F)F)c3)n2)c(OC)c1,2.17
8,CN(C(=O)c1ccc(N2CCOCC2)c([N+](=O)[O-])c1)C1CCCCC1,-4.07
9,CC(C)(C)C(=O)N1CCC[C@@]1(CO)C(=O)O,5.07
10,O=C(CSc1nnc(-c2cc(-c3cccs3)nc3ccccc23)o1)NC1CCCCC1,7.67
11,Cn1cnnc1SCC(=O)Nc1nc(-c2ccccc2)cs1,-4.33
12,Cc1cccc(NC(=O)CN2CCN(C(=O)C(C)Oc3ccc(C#N)cc3)CC2)c1C (stereo not drawn),-76.9
13,CC(=O)Nc1nc(-c2ccc3c(c2)CCN3S(C)(=O)=O)cs1,2.07
14,Cc1noc(C)c1COC(=O)Cc1ccc(Cl)cc1,-5.13
15,COc1cccc(/C=C/C(=O)OCC(=O)N2CCN(S(=O)(=O)c3ccc(Cl)cc3)CC2)c1,17.9
16,O=C(CSc1ccccn1)N1CCc2ccccc21,8.86
17,CC(C)CNC(=O)c1ccc2c(c1)C(=O)N(C1CCCCC1)C2=O,-0.062
18,CCOc1ccc(-c2c(C(=O)N/N=C/c3cccs3)nnn2-c2nonc2N)cc1,2.22
19,Cc1cc(C(=O)OCC(=O)NCc2ccco2)c(C)o1,-10.7
20,CC(=O)N1CC(=O)N(OCc2ccccc2)C1c1ccc(Cl)cc1Cl (stereo not drawn),-6.23
21,CC1(C)CC(=O)/C(=N/Nc2ccc(Cl)cc2)CO1,6.07
22,Cc1nnc2sc(SCC(=O)N3CCCCC3)nn2c1=O,5.28
23,CCN(CC)CCCNC(=O)C1c2ccccc2Oc2ccccc21,7.86

row,SMILES,"hERG current change (%, negative = inhibition) at 10uM [%]"
1,CSCCNCc1c(C(=O)N2CCOCC2)nc2c(C)cccn12,7.33
2,CC(C)NC(=O)c1onc(CSc2ccc(F)c(F)c2)c1C(=O)NC(C)C,-34
3,COc1ccc(NC(=S)N2CCN(c3ccccc3)CC2)c(OC)c1,7.83
4,CC(=O)c1cn(Cc2ccc(F)cc2)c2ccccc12,-10.4
5,COc1ccccc1Nc1ncnc2nc[nH]c12,10.8
6,CN(CC(=O)Nc1ccccc1Cl)C(=O)C1CCN(C(=O)c2ccc(Cl)cc2)CC1,-35.1
7,CC12CN3CC(C)(CN(C1)C3c1ccc(Br)cc1O)C2 (stereo not drawn),-17.3
8,O=C(N/N=C/c1c[nH]c2ccccc12)c1cc(Cl)ccc1O,8.24
9,CN(C)c1ccc(/C=C/C(=O)c2cccnc2)cc1,-3.92
10,Cc1ccc2nc(-c3ccc(NC(=O)COC(=O)c4ccco4)cc3)sc2c1,7.44
11,Cc1cnc(C(=O)OC(C)C(=O)NC2CCCc3ccccc32)cn1 (stereo not drawn),-3.62
12,COc1ccc(-c2csc(NC(=O)c3ccc(OCC(=O)N4CCOCC4)c(OC)c3)n2)cc1,-48
13,CCC(C)(C)NC(=O)C(c1sccc1C)N(Cc1ccco1)C(=O)c1csnn1 (stereo not drawn),3.82
14,CCOc1ccc(NC(=S)NS(=O)(=O)c2cc(Br)ccc2OCC)cc1,16.7
15,COC(=O)C[C@H]1c2cc(F)ccc2S(=O)(=O)N1C(C)C,9.21
16,Cc1nn(C(C)C)c(C)c1[C@@H]1C[C@H]2CN(Cc3cccc(Cl)c3)C(=O)[C@]23CCCN13,-29.2
17,COCCNc1nc(N)c([N+](=O)[O-])c(Nc2ccc(F)cc2)n1,19.6
18,FC(F)(F)COc1ccc(-n2ccnc2)nn1,5.77
19,Cc1sc2ncnc(N)c2c1C,4.12
20,COc1cccc(CN(CC(=O)NC2CCCC2)C(=O)c2csnn2)c1,20
21,CC(=O)N/C(=C\c1ccccc1)C(=O)OCC(=O)NC1CCS(=O)(=O)C1 (stereo not drawn),0.657
